# Measured values from the supplement of paper PMC3334620.
# The full ranking holds about 33,000 sequences; the median of “E-score (-0.5 to 0.5)” is about -0.021, and the highest 2% start at about 0.32. Some of the results follow.
# Target: T1, Zap1 (UniProt P47043)
# T1 sequence: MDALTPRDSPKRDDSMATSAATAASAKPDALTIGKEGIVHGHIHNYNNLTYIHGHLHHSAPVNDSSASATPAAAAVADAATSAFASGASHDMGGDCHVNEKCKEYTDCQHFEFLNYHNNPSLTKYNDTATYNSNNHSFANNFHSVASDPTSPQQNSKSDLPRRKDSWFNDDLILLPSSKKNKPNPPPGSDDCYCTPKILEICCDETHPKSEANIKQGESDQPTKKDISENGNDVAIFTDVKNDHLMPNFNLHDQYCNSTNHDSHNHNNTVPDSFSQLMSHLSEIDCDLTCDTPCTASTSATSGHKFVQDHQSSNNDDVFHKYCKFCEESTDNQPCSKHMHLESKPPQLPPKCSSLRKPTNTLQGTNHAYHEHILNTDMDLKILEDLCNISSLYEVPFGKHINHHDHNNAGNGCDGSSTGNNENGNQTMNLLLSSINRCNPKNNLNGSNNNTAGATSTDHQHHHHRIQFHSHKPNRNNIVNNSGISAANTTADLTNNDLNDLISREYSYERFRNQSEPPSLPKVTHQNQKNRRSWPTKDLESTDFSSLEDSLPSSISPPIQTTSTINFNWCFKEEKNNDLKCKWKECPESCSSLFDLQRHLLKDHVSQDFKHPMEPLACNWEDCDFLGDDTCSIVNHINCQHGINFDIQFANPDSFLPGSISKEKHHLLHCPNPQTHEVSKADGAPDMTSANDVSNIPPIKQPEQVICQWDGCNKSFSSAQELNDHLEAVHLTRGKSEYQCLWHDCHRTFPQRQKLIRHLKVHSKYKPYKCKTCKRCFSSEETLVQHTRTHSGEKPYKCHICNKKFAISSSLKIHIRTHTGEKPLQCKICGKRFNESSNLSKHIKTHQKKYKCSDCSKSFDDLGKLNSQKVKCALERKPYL
# Assay: PBM E-score (8-mer binding enrichment) (E-score (-0.5 to 0.5)); higher = stronger / more preferred TF binding; most listed sequences are background and not binding sites
# Settings: protein concentration: 200 nM; construct: GST-full length
# Method: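 Universal 'all 10-mer' protein binding microarrays (Agilent AMADID 015681) probed with GST-tagged S. cerevisiae TFs (full-length or DBD) made by in vitro transcription/translation (PURExpress), about 100-200 nM. Bound TF was detected with fluorescent anti-GST. Each ungapped 8-mer (which stands for itself and its reverse complement) is scored by the PBM enrichment score (E-score), a modified Wilcoxon-Mann-Whitney statistic from -0.5 to +0.5, computed with the Universal PBM Analysis Suite. Scale: above 0.35 generally sequence-specific binding.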
row,Sequence,PBM E-score
1,TACTCCCA,-0.0615
2,ACCGGACA,-0.0999
3,CGGCTAGA,-0.178
4,ACGTGGAC,-0.0518
5,CAAAGCCC,-0.22
6,AGGAGTTG,-0.0268
7,AACCTTCA,0.368
8,AAGCATAT,0.0223
9,ACTGGCTA,-0.0583
10,CTCAGTAC,-0.0326
11,AGCGTGCC,-0.33
12,GAGTTCCA,0.0167
13,GCTGTCCC,-0.127
14,CGCCCCAA,0.253
15,CGTTTCTC,-0.106
16,ACATCGAA,0.0163
17,AGATAGGA,-0.186
18,AGGAGTAG,-0.0329
19,CAACAAGA,0.129
20,AACTCCAA,-0.0751
21,CCACCTAC,-0.188
22,CATAAAAG,0.135
23,AGGACCAA,0.159
24,ACTTACAT,0.00526
25,CCCGCTAC,0.0597

row,Sequence,PBM E-score
1,AGAAACAC,0.166
2,ACCATAAC,0.399
3,AAAAGGAT,0.0556
4,GACGTCAC,-0.223
5,CACGTAAA,-0.289
6,CCTCTGTC,0.0337
7,ACCCTTAA,0.443
8,ACTACCCT,0.445
9,GACTCCAC,-0.358
10,AGCTGCAC,-0.101
11,CTAAGAAA,0.0841
12,CCAACCAC,0.256
13,AACTCACA,0.111
14,TCGGGCCA,-0.122
15,ACTCTTTG,-0.0892
16,CGGAGTGC,-0.0171
17,AGCGTTTG,0.0372
18,GGGCGGGA,0.0916
19,AGCAGCAA,0.0188
20,ACAGGGGT,0.208
21,ACGACCGT,-0.134
22,GCAGGCAC,-0.0855
23,CGAGTACA,-0.037
24,AGGATCGC,-0.11
25,CCGTCCAA,-0.134

row,Sequence,PBM E-score
1,ACCAACAC,0.178
2,AAAACAAC,-0.0349
3,CACATAGG,-0.008
4,CAGGTTGA,-0.0454
5,CCTCCATC,-0.227
6,AAAATAAG,0.0496
7,ATTGCTTC,-0.0372
8,CGAACGCA,0.163
9,GCGCCTCA,-0.204
10,AGGGCAAC,-0.11
11,ACATTTCT,-0.0508
12,CACTCAAG,0.0566
13,ATCGCGGC,0.1
14,CCATGCAG,-0.123
15,AACCGGCA,0.133
16,CCCTTAAA,0.0531
17,ATTTCCAG,0.0665
18,CCCATATC,0.0562
19,GCTTCTAA,-0.247
20,CGCAACAA,0.109
21,CAAAGTTA,0.213
22,ATTTGGGG,0.0876
23,TCGGCCCA,-0.0267
24,CAAGCGAA,-0.109
25,GGCTCGGA,-0.294

row,Sequence,PBM E-score
1,CTGGTTAC,0.412
2,ATCTTAAT,-0.00148
3,GAGGCGAC,-0.297
4,AGCAACTA,-0.0241
5,CCTTAGTC,-0.112
6,TCGTTACA,-0.024
7,AAGGCCGG,0.0655
8,GGTAGGGA,0.0858
9,GCTTAGAA,0.0605
10,AATCCATC,-0.206
11,CTGTAGCA,-0.127
12,TCGCTGCA,-0.144
13,CTGGATTA,-0.0175
14,TTACACAA,0.21
15,CTGTAGAC,-0.124
16,ATACTCGA,-0.0721
17,CGCGCGCG,0.0913
18,CACGGAAG,-0.12
19,GAGCGCGA,0.0578
20,GCTGCTCC,-0.347
21,ATGACTTA,-0.00776
22,AACGTAGC,-0.0278
23,CGCCGTCA,-0.252
24,TCCGCTAA,0.018
25,ACCCTTCT,0.272

row,Sequence,PBM E-score
1,CGCTGTAC,-0.0562
2,ACATGGGC,-0.0618
3,TAGGCAGA,0.0261
4,GCTGGGCA,-0.212
5,AGGTCCTC,0.0273
6,AGCGTGAA,-0.112
7,ATCTGACC,0.187
8,GAGTGATC,-0.037
9,ATTTACGA,0.0274
10,AAGACCGC,0.0669
11,TCCGGAGA,-0.0947
12,ACCAACTA,0.13
13,CCACCTAG,-0.00242
14,CATCATCG,-0.119
15,ATGAACTA,-0.00172
16,AGGTGCTA,-0.197
17,GATGGTGC,-0.228
18,ATACGTGA,-0.0843
19,CCTCGGTA,0.148
20,ATGTCTAG,0.0655
21,CCCAGCCA,-0.115
22,ACGTCTTC,-0.195
23,ACCTATGC,-0.0629
24,CGCGTTAG,0.107
25,ACGCAAAC,-0.0124

row,Sequence,PBM E-score
1,ATTACGAA,0.196
2,CCCGACAG,-0.0441
3,ACCCCAGC,0.238
4,CGGCATAG,-0.0218
5,CCCATCAG,0.034
6,TATTTTAA,0.172
7,AGGCCGGC,-0.0951
8,CCCGTTAG,-0.0312
9,ATATGAAT,0.0691
10,TCTCAAGA,-0.0555
11,CGTATGGC,0.00486
12,GTCTTGGA,-0.181
13,GGCCCGGA,0.0567
14,AATAGAGC,-0.04
15,CCGCGCCC,-0.223
16,AAGAGTAC,0.0671
17,CGAGGTCA,0.357
18,GCTCCCGA,-0.288
19,CAAAATCA,0.133
20,CGGTGTAG,-0.128
21,ATAGTACA,0.0914
22,AGGGAAGG,-0.134
23,TAAATCTA,0.13
24,AGCTGCGC,-0.287
25,CCATTCTC,0.111

row,Sequence,PBM E-score
1,ACTTGCGC,-0.159
2,ACCACTTC,-0.0476
3,AAGCATCA,0.00653
4,AACGCAAT,-0.0036
5,CGATACTC,-0.185
6,CCGTGAGG,0.194
7,CCCAGGCA,-0.0923
8,AGACGTAC,-0.0429
9,AACCTCTC,0.349
10,AACGGCCG,0.0514
11,ACACCTAT,0.00134
12,TGTTAGAA,-0.00513
13,GTAACTTA,0.195
14,GGTTTCAC,0.049
15,CATCCCGA,-0.151
16,GCCTCTCA,-0.212
17,GTATAAAA,0.247
18,GGCTGGGA,-0.121
19,TCGTTAGA,-0.126
20,CTGTTGGC,-0.234
21,ACGAGTGA,-0.0794
22,AGTTCTAT,-0.0731
